{
  "source": "PubChem BioAssay AID686970",
  "about": "(National Center for Advancing Translational Sciences (NCATS), 2013)",
  "note": "Among all 360,000 compounds or so, about 6,000 (1.7%) were called active. The shares of active, inactive and inconclusive entries below differ from those in the screen. Calls follow the shape of the dose curve; as a rule, active = well fitted cell-killing curve with a large enough effect; inconclusive = small, poorly fitted or top-dose-only effect, or effect the other way; inactive = flat fitted curve, though single readings scatter. Potencies of inconclusive entries are left out as doubtful fits. Potency is read from the fitted curve at half-maximal effect; tags tell the direction and shape of the fitted curve.",
  "data": [
    {"experiment": "qHTS for induction of synthetic lethality in tumor cells producing 2HG: qHTS for the HT-1080-NT fibrosarcoma cell line;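 also: NT is the 2HG producing partner of a matched IDH1 knockdown line; nearly all actives have a fitted effect of over 55% in size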;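 as to activity, negative = less viability: 0% = DMSO-treated cells and -100% = media-only wells without cells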", "details": "HT-1080-NT fibrosarcoma viability, CellTiter-Glo ATP luminescence, 48 h; activity, negative = less viability: at 46.1 µM (top of the series) unless noted", "method_in_brief": "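Viability by CellTiter-Glo luminescence after 48 h compound exposure at 37C of HT-1080-NT cells (750/well, RPMI, 5% FBS). % activity scaled between DMSO wells and medium-only wells, then curve-fitted and categorized by curve class.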", "values": [
      {"smiles": "CCN(c1ccc(OC)cc1)S(=O)(=O)c1nnc(NC(=O)C(C)C)s1", "Potency": "inconclusive [cytotoxic, partial curve]"},
      {"smiles": "COc1ccc(C(=O)/C=C/NCc2ccc(F)cc2)cc1OC", "activity, negative = less viability": "inactive: -20.7%"},
      {"smiles": "N#Cc1ccc(-c2ccc(OCC(=O)Nc3cccnc3)cc2)cc1", "Potency": "inconclusive [cytotoxic, single point]"},
      {"smiles": "COc1ccc(Br)cc1/C(C)=N/NC1=NCCN1", "activity, negative = less viability": "inactive: -5.82%"},
      {"smiles": "CC(/C=N/Nc1nc(N2CCCCC2)nc(N2CCCCC2)n1)=C\\c1ccccc1", "activity, negative = less viability": "inactive: -14.3%"},
      {"smiles": "Cn1c(C(=O)NCC2CCCO2)cc2c(=O)n3ccccc3nc21", "note": "(stereo unspecified)", "activity, negative = less viability": "inconclusive: 32.1%"},
      {"smiles": "O=C(CNC(=O)c1ccc(Cl)cc1)NCCCn1ccnc1", "activity, negative = less viability": "inactive: 13.1%"},
      {"smiles": "Cc1ccc2nc(C(C)(C)C)c(Cc3cccc(Cl)c3)n2c1", "Potency": "active: 16.4 µM"},
      {"smiles": "CC(=O)c1ccc(NS(=O)(=O)c2cc3c(cc2C)N(C(C)=O)CCO3)cc1", "activity, negative = less viability": "inactive: 11.8%"},
      {"smiles": "Cc1ccc(Cn2c(CCNc3nc(-c4ccc(Cl)c([N+](=O)[O-])c4)cs3)nc3cc(C(=O)NCCCO)ccc32)cc1", "Potency": "inconclusive [cytotoxic, partial curve]"},
      {"smiles": "CCCOc1ccc(C(=O)NC2CCSc3ccccc32)cc1", "note": "(stereo unspecified)", "activity, negative = less viability": "inactive: -15.6%"},
      {"smiles": "CCCCn1nnnc1C(c1ccccc1)N1CCN(c2ncccc2C(F)(F)F)CC1", "note": "(stereo unspecified)", "Potency": "inconclusive [cytotoxic, single point]"},
      {"smiles": "Cn1cc(S(=O)(=O)N2CCN(c3cccc(Cl)c3)CC2)c(=O)n(C)c1=O", "activity, negative = less viability": "inactive: -15.1%"},
      {"smiles": "Cc1cccnc1NC(=O)c1ccc(Cl)c(S(=O)(=O)N2CCCCCC2)c1", "activity, negative = less viability": "inconclusive: -41.8% [cytotoxic]"},
      {"smiles": "COc1ccc(-c2cc(C(=O)Nc3cc(OC)c(OC)c(OC)c3)[nH]n2)c(C)c1", "Potency": "inconclusive [rising, partial curve]"},
      {"smiles": "CCCCN(C)c1c(C)nc2ccc(C(=O)NCc3ccc(OC)cc3)cn12", "Potency": "inconclusive [cytotoxic, single point]"},
      {"smiles": "[O-][N+]1=c2ccc(Nc3ccccc3)cc2=NC12CCCCC2", "Potency": "inconclusive [cytotoxic, single point]"},
      {"smiles": "COc1cc(NC(=O)C2=C(N3CCOCC3)/C(=C/c3ccc(Cl)cc3)CC2)cc(OC)c1OC", "activity, negative = less viability": "inactive: -26%"},
      {"smiles": "CCN(CC)C(=O)[C@H]1C[C@H](CC(=O)NC(C)(C)C)C(=O)N2CCc3c([nH]c4ccc(Cl)cc34)[C@]12C", "activity, negative = less viability": "inactive: 2.76%"},
      {"smiles": "CCC(CC)C(=O)Nc1nnc(S(=O)(=O)N2CCc3ccccc32)s1", "activity, negative = less viability": "inactive: 12.6%"},
      {"smiles": "CCOc1ccc(NS(=O)(=O)c2ccc(NC(=S)NC(=O)CC(C)C)cc2)cc1", "Potency": "inconclusive [cytotoxic, single point]"},
      {"smiles": "N#C/C(C(=O)NCCc1ccccc1)=C1/N=C(NC(=O)c2cccs2)c2ccccc21", "Potency": "inconclusive [cytotoxic, single point]"},
      {"smiles": "CCOC(=O)CNc1c(-c2ccc(OC)cc2)nc2ccc(Cl)cn12", "activity, negative = less viability": "inactive: 2.62%"},
      {"smiles": "CCc1sc(C(=O)Nc2ncccc2O)cc1C", "Potency": "inconclusive [cytotoxic, single point]"},
      {"smiles": "COCCNC(=S)N(CCc1c(C)[nH]c2ccc(F)cc12)Cc1ccc(C)cc1", "Potency": "inconclusive [cytotoxic, single point]"},
      {"smiles": "Cc1noc(N)c1C(=O)Nc1ccc(C(C)(C)C)cc1", "Potency": "inconclusive [cytotoxic, single point]"},
      {"smiles": "O=C(Oc1c(Cl)cc(Cl)c2cccnc12)c1ccco1", "Potency": "inconclusive [cytotoxic, single point]"},
      {"smiles": "CCC(=O)Nc1nnc(SCC(=O)NCC2CCCO2)s1", "note": "(stereo unspecified)", "Potency": "inconclusive [cytotoxic, partial curve, poor fit]"},
      {"smiles": "N#CC(c1ccccc1)C1CCN(Cc2ccccc2)CC1", "note": "(stereo unspecified)", "activity, negative = less viability": "inactive: 0.513%"},
      {"smiles": "C/C(CC1CC2=C(CC1(C)C)C(C)(C)CCC2)=N\\NC(N)=S", "note": "(stereo unspecified)", "Potency": "inconclusive [cytotoxic, full curve, poor fit]"},
      {"smiles": "CC1(C(=O)Nc2ccc(Cl)cc2)Cc2c(-c3cccc(C(N)=O)c3)ccnc2O1", "note": "(stereo unspecified)", "Potency": "inconclusive [cytotoxic, partial curve]"},
      {"smiles": "COc1ccc(/C=N/Nc2nnc(Cc3ccc(OC)c(OC)c3)c(=O)[nH]2)cc1OC", "Potency": "inconclusive [cytotoxic, single point]"},
      {"smiles": "COc1ccccc1CCNC(=O)CNC(=O)Cc1cccc2ccccc12", "activity, negative = less viability": "inactive: -17.2%"},
      {"smiles": "CCOC(=O)CC(=O)CSc1nc(N)c(C#N)c(-c2ccc(Cl)cc2)c1C#N", "Potency": "inconclusive [cytotoxic, single point]"},
      {"smiles": "Cc1cccc(N/C(=N\\S(=O)(=O)c2ccccc2)C(F)(F)F)c1", "activity, negative = less viability": "inactive: -0.571%"},
      {"smiles": "O=C(NCCc1nc2ccccc2[nH]1)/C(=C/c1ccc2c(c1)OCO2)NC(=O)c1ccc(Cl)cc1Cl", "Potency": "inconclusive [cytotoxic, partial curve]"}
    ]}
  ]
}
